Some of the results follow. Repeats are few or missing, and single values can be far off.
Tests used:
Assay in all cases: cell count relative to DMSO control; melanoma cells; higher = more viable cells
Conditions in all cases: library dose: standard library concentration; 72 h
A101D = tested on: A101D
A2058 = tested on: A2058
A375 = tested on: A375
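Further: cells treated in 1,536-well plates, then fixed and DAPI-stained, with nuclei counted from automated high-throughput microscope images.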

| SMILES | cell count (A101D) [%] | cell count (A2058) [%] | cell count (A375) [%] |
| --- | --- | --- | --- |
| CC[C@]1(O)C[C@H]2CN(CCc3c([nH]c4ccccc34)[C@@](C(=O)OC)(c3cc4c(cc3OC)N(C=O)[C@H]3[C@@](O)(C(=O)OC)[C@H](OC(C)=O)[C@]5(CC)C=CCN6CC[C@]43[C@@H]65)C2)C1 [vincristine] + Cc1ccc(Nc2nccc(N(C)c3ccc4c(C)n(C)nc4c3)n2)cc1S(N)(=O)=O [Pazopanib] (first compound 0.0005 µM, partner dose 2 µM) | 69.1 | 62.5 | 102 |
| Cc1cc(Nc2cc(N3CCN(C)CC3)nc(Sc3ccc(NC(=O)C4CC4)cc3)n2)n[nH]1 [Tozasertib] + CCN(CC)CCNC(=O)c1c(C)[nH]c(/C=C2\C(=O)Nc3ccc(F)cc32)c1C [sunitinib] (first compound 0.03 µM, partner dose 2 µM) | 62.2 | 51.1 | 91.4 |
| N#CC[C@H](C1CCCC1)n1cc(-c2ncnc3[nH]ccc23)cn1 [ruxolitinib] + NC(=O)c1ccc(N(C(N)=O)c2c(F)cccc2F)nc1-c1ccc(F)cc1F [VX702] (first compound 5 µM, partner dose 2 µM) | 120 | 79.3 | 127 |
| Cc1cc(Nc2cc(N3CCN(C)CC3)nc(Sc3ccc(NC(=O)C4CC4)cc3)n2)n[nH]1 [Tozasertib] + C=CCNC1=C2C[C@@H](C)C[C@H](OC)[C@H](O)[C@@H](C)/C=C(\C)[C@H](OC(N)=O)[C@@H](OC)/C=C\C=C(/C)C(=O)NC(=CC1=O)C2=O [Tanespimycin] (first compound 0.03 µM, partner dose 0.01 µM) | 73.6 | 75.4 | 85.4 |
| CC[C@]1(O)C[C@H]2CN(CCc3c([nH]c4ccccc34)[C@@](C(=O)OC)(c3cc4c(cc3OC)N(C=O)[C@H]3[C@@](O)(C(=O)OC)[C@H](OC(C)=O)[C@]5(CC)C=CCN6CC[C@]43[C@@H]65)C2)C1 [vincristine] + C#Cc1cccc(Nc2ncnc3cc(OCCOC)c(OCCOC)cc23)c1 [erlotinib] (first compound 0.0005 µM, partner dose 4 µM) | 52 | 13.2 | 61.1 |
| CC[C@]1(O)C[C@H]2CN(CCc3c([nH]c4ccccc34)[C@@](C(=O)OC)(c3cc4c(cc3OC)N(C=O)[C@H]3[C@@](O)(C(=O)OC)[C@H](OC(C)=O)[C@]5(CC)C=CCN6CC[C@]43[C@@H]65)C2)C1 [vincristine] + O=C1NC(=O)/C(=C/c2ccc(-c3ccc(F)cc3O)o2)S1 [AS252424] (first compound 0.0005 µM, partner dose 5 µM) | 51 | 11.8 | 125 |
| N#CC[C@H](C1CCCC1)n1cc(-c2ncnc3[nH]ccc23)cn1 [ruxolitinib] + COc1cc(Nc2ncc(F)c(Nc3ccc4c(n3)NC(=O)C(C)(C)O4)n2)cc(OC)c1OC [Tamatinib] (first compound 5 µM, partner dose 2 µM) | 18.8 | 42.3 | 128 |
| N#CC[C@H](C1CCCC1)n1cc(-c2ncnc3[nH]ccc23)cn1 [ruxolitinib] + Cc1cc(N2CCOCC2)cc2[nH]c(-c3c(NC[C@@H](O)c4cccc(Cl)c4)cc[nH]c3=O)nc12 [BMS536924] (first compound 5 µM, partner dose 1 µM) | 109 | 83.2 | 139 |
| CC[C@]1(O)C[C@H]2CN(CCc3c([nH]c4ccccc34)[C@@](C(=O)OC)(c3cc4c(cc3OC)N(C=O)[C@H]3[C@@](O)(C(=O)OC)[C@H](OC(C)=O)[C@]5(CC)C=CCN6CC[C@]43[C@@H]65)C2)C1 [vincristine] + CN(C)S(=O)(=O)c1ccc2c(c1)/C(=C/c1cc3c([nH]1)CCCC3)C(=O)N2 [SU6656] (first compound 0.0005 µM, partner dose 2 µM) | 37 | 5.47 | 108 |
| N#CC[C@H](C1CCCC1)n1cc(-c2ncnc3[nH]ccc23)cn1 [ruxolitinib] + CNC(=O)c1cc(Oc2ccc(NC(=O)Nc3ccc(Cl)c(C(F)(F)F)c3)cc2)ccn1 [sorafenib] (first compound 5 µM, partner dose 2 µM) |  | 81.8 | 169 |
| Cc1cc(Nc2cc(N3CCN(C)CC3)nc(Sc3ccc(NC(=O)C4CC4)cc3)n2)n[nH]1 [Tozasertib] + Nc1cccc2c1CN(C1CCC(=O)NC1=O)C2=O [lenalidomide] (first compound 0.03 µM, partner dose 5 µM) | 89.3 | 85.3 | 79.4 |
| CC[C@]1(O)C[C@H]2CN(CCc3c([nH]c4ccccc34)[C@@](C(=O)OC)(c3cc4c(cc3OC)N(C=O)[C@H]3[C@@](O)(C(=O)OC)[C@H](OC(C)=O)[C@]5(CC)C=CCN6CC[C@]43[C@@H]65)C2)C1 [vincristine] + Nc1nc(F)nc2c1ncn2[C@@H]1O[C@H](CO)[C@@H](O)[C@@H]1O [fludarabine] (first compound 0.0005 µM, partner dose 1 µM) | 72.6 | 64.7 | 25.3 |
| N#CC[C@H](C1CCCC1)n1cc(-c2ncnc3[nH]ccc23)cn1 [ruxolitinib] + OCCn1cc(-c2cnc3nnn(Cc4ccc5ncccc5c4)c3n2)cn1 [PF04217903] (first compound 5 µM, partner dose 5 µM) | 119 | 74.1 | 116 |
| N#CC[C@H](C1CCCC1)n1cc(-c2ncnc3[nH]ccc23)cn1 [ruxolitinib] + c1cc(-c2cnn3cc(-c4ccc(OCCN5CCCCC5)cc4)cnc23)ccn1 [Dorsomorphin] (first compound 5 µM, partner dose 2 µM) | 74.6 | 47.7 | 96.5 |
| CC[C@]1(O)C[C@H]2CN(CCc3c([nH]c4ccccc34)[C@@](C(=O)OC)(c3cc4c(cc3OC)N(C=O)[C@H]3[C@@](O)(C(=O)OC)[C@H](OC(C)=O)[C@]5(CC)C=CCN6CC[C@]43[C@@H]65)C2)C1 [vincristine] + Cc1cc(Nc2cc(N3CCN(C)CC3)nc(/C=C/c3ccccc3)n2)n[nH]1 [ENMD2076] (first compound 0.0005 µM, partner dose 0.2 µM) | 57.6 | 82.3 | 89 |
| N#CC[C@H](C1CCCC1)n1cc(-c2ncnc3[nH]ccc23)cn1 [ruxolitinib] + O=C(Nc1cc(C(F)(F)F)cc(C(F)(F)F)c1)c1cc(Cl)ccc1O [IMD0354] (first compound 5 µM, partner dose 0.08 µM) | 83 | 76.4 | 116 |
| N#CC[C@H](C1CCCC1)n1cc(-c2ncnc3[nH]ccc23)cn1 [ruxolitinib] + COc1cc2c(Oc3ccc4[nH]c(C)cc4c3F)ncnc2cc1OCCCN1CCCC1 [cediranib] (first compound 5 µM, partner dose 2 µM) | 145 | 102 | 112 |
| CC[C@]1(O)C[C@H]2CN(CCc3c([nH]c4ccccc34)[C@@](C(=O)OC)(c3cc4c(cc3OC)N(C=O)[C@H]3[C@@](O)(C(=O)OC)[C@H](OC(C)=O)[C@]5(CC)C=CCN6CC[C@]43[C@@H]65)C2)C1 [vincristine] + NC(=O)Nc1cc(-c2cccc(F)c2)sc1C(=O)N[C@H]1CCCNC1 [AZD7762] (first compound 0.0005 µM, partner dose 0.1 µM) | 47 | 14.6 | 62.5 |
| Cc1cc(Nc2cc(N3CCN(C)CC3)nc(Sc3ccc(NC(=O)C4CC4)cc3)n2)n[nH]1 [Tozasertib] + CC(=O)O[C@@]12CO[C@@H]1C[C@H](O)[C@@]1(C)C(=O)[C@H](O)C3=C(C)[C@@H](OC(=O)[C@H](O)[C@@H](NC(=O)OC(C)(C)C)c4ccccc4)C[C@@](O)([C@@H](OC(=O)c4ccccc4)[C@H]21)C3(C)C [Docetaxel] (first compound 0.03 µM, partner dose 0.0005 µM) | 49.8 | 5.16 | 66.6 |
| N#CC[C@H](C1CCCC1)n1cc(-c2ncnc3[nH]ccc23)cn1 [ruxolitinib] + NCC(=O)Nc1ccc(-n2nc(C(F)(F)F)cc2-c2ccc3c(ccc4ccccc43)c2)cc1 [OSU03012] (first compound 5 µM, partner dose 5 µM) | 68.1 | 61.6 | 52 |
| CC[C@]1(O)C[C@H]2CN(CCc3c([nH]c4ccccc34)[C@@](C(=O)OC)(c3cc4c(cc3OC)N(C=O)[C@H]3[C@@](O)(C(=O)OC)[C@H](OC(C)=O)[C@]5(CC)C=CCN6CC[C@]43[C@@H]65)C2)C1 [vincristine] + CC(=O)c1c(C)c2cnc(Nc3ccc(N4CCNCC4)cn3)nc2n(C2CCCC2)c1=O [palbociclib] (first compound 0.0005 µM, partner dose 0.2 µM) | 45.8 | 9.72 | 57.3 |
| N#CC[C@H](C1CCCC1)n1cc(-c2ncnc3[nH]ccc23)cn1 [ruxolitinib] + C[C@@H](Oc1cc(-c2cnn(C3CCNCC3)c2)cnc1N)c1c(Cl)ccc(F)c1Cl [Crizotinib] (first compound 5 µM, partner dose 1 µM) | 119 | 60.4 | 131 |
| CC[C@]1(O)C[C@H]2CN(CCc3c([nH]c4ccccc34)[C@@](C(=O)OC)(c3cc4c(cc3OC)N(C=O)[C@H]3[C@@](O)(C(=O)OC)[C@H](OC(C)=O)[C@]5(CC)C=CCN6CC[C@]43[C@@H]65)C2)C1 [vincristine] + Cc1cn(-c2cc(NC(=O)c3ccc(C)c(Nc4nccc(-c5cccnc5)n4)c3)cc(C(F)(F)F)c2)cn1 [nilotinib] (first compound 0.0005 µM, partner dose 1 µM) | 40.5 | 89.8 | 124 |
| CC[C@]1(O)C[C@H]2CN(CCc3c([nH]c4ccccc34)[C@@](C(=O)OC)(c3cc4c(cc3OC)N(C=O)[C@H]3[C@@](O)(C(=O)OC)[C@H](OC(C)=O)[C@]5(CC)C=CCN6CC[C@]43[C@@H]65)C2)C1 [vincristine] + COc1ccc(Cl)c(Nc2nc3ccccc3nc2NS(=O)(=O)c2cccc(NC(=O)C(C)(C)N)c2)c1 [XL147] (first compound 0.0005 µM, partner dose 4 µM) | 53.5 | 31.2 | 87.1 |
